The campaign covered roughly 280,000 compounds. About 100 (0.036%) were called active. Inconclusive results, whose numbers are uncertain, are shown with a selection of clear calls. Calls follow the shape of the dose curve; as a rule, active = well fitted inhibition curve with a large enough effect in the signal ratio, with a control signal flat (not every such curve was filed as active); inconclusive = small, poorly fitted or top-dose-only effect, or effect the other way, or a change in a side signal; inactive = no such curve, though single readings can be large or run the other way; the % refers to the signal ratio. Potencies beside an inconclusive call are fits to weak or partial responses and may not hold up. A note “side channel” means that the fit belongs to a control or component signal, not to the main read-out.
Target: Muscleblind-like protein 1 (Homo sapiens) (UniProt Q9NR56)
Assay: qHTS Assay for Inhibitors of MBNL1-poly(CUG) RNA binding
Details: TR-FRET MBNL1-His/biotin-(CUG)12 binding, 665/545 ratio; activity change, negative = inhibition: at 57.5 µM (top of the series)
Procedure, shortened: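 Compound titration spanned 92 nM–58 uM against the MBNL1-His/biotin-(CUG)12 complex. After 60 min at room temperature with 5 nM streptavidin-XL665 and 0.055 ng/ul terbium anti-His, ratiometric 665/545 nm emission (Ex 340 nm) normalized to controls.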
% is scaled to controls: 0 for no effect and ±100 for the full control effect; potency is read from the fitted curve at half-maximal effect; tags tell the direction and shape of the fitted curve or compound fluorescence and quenching.

Chain of UniProt Q9NR56 (Q9NR56 whole entry, looked up): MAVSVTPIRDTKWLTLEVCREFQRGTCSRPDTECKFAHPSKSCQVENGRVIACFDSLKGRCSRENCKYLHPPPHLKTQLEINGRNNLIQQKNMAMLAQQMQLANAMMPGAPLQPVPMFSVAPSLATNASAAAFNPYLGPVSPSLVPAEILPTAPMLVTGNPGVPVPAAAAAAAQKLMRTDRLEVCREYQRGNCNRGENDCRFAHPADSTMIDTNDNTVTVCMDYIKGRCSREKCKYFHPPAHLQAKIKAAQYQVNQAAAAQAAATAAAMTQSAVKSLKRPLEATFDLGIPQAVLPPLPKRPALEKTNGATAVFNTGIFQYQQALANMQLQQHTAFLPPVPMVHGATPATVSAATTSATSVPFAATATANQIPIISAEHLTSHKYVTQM

Row | Compound | Potency | activity change, negative = inhibition
1 | CC1CC(C)CN(c2cc(N(C)CCO)c([N+](=O)[O-])c3nonc23)C1 (centres undefined) | inconclusive: 15.8 µM [quencher, side channel, partial curve] | –
2 | O=C(O)c1cccc(Nc2c3ccccc3nc3ccccc23)c1 | inconclusive: 12.6 µM [quencher, side channel, partial curve] | –
3 | COCCNC(=O)C(c1ccc(C)o1)N(Cc1ccco1)C(=O)c1snc(C(N)=O)c1N (centres undefined) | inconclusive: 28.2 µM [quencher, side channel, single point] | –
4 | O=C(c1ccc([N+](=O)[O-])cc1)N1CCN(Cc2ccccc2[N+](=O)[O-])CC1 | inconclusive: 12.6 µM [quencher, side channel, partial curve] | –
5 | Cc1ccccc1CN1CCN(S(=O)(=O)c2cccc3nsnc23)CC1 | inconclusive: 15.8 µM [quencher, side channel, partial curve] | –
6 | O=C(O)c1cc(N/N=C/c2ccc(N3CCOCC3)cc2)ccc1Cl | inconclusive: 35.5 µM [quencher, side channel, single point] | –
7 | O=C(CCCc1ccccc1)N1CCN(c2ccc([N+](=O)[O-])cc2)CC1 | inconclusive: 15.8 µM [quencher, side channel, partial curve] | –
8 | O=C(Cc1ccccc1)N/N=C/c1ccc2cccc(O)c2n1 | inconclusive: 14.1 µM [quencher, side channel, partial curve] | –
9 | Cc1c(C2Nc3ccccc3NC3=C2C(=O)CC(C)(C)C3)cnn1C (centres undefined) | inconclusive: 28.2 µM [quencher, side channel, single point] | –
10 | O=c1cc(-c2c(F)c(F)c(F)c(F)c2F)oc2c(F)c(F)c(F)c(F)c12 | – | inactive: 6.14%
11 | CC(=O)OCCN1C(=O)c2cccnc2C1=O | inconclusive: 12.6 µM [quencher, side channel, partial curve] | –
12 | O=S(=O)(c1ccc(Br)c2nsnc12)N1CCOCC1 | inconclusive: 3.98 µM [quencher, side channel, partial curve] | –
13 | O=C(CNC(=O)Cc1ccccc1)N=Nc1c(O)[nH]c2ccccc12 | inconclusive: 15.8 µM [quencher, side channel, partial curve] | –
14 | O=C(O)CCCCCN1C(=O)C(O)=C(C(=O)/C=C/c2ccccc2)C1c1cccc([N+](=O)[O-])c1 (centres undefined) | inconclusive: 31.6 µM [quencher, side channel, single point] | –
15 | O=C(Nc1sc2c(c1C(=O)NC1CCCCC1)CCC2)c1ccco1 | – | inactive: 2.75%
16 | O=C(OC1CCCCC1=O)c1cc(Cl)ccc1[N+](=O)[O-] (centres undefined) | inconclusive: 14.1 µM [quencher, side channel, partial curve] | –
17 | CN1CCN(C(=O)c2sc(=S)n(-c3ccccc3)c2N)CC1 | inconclusive: 28.2 µM [quencher, side channel, single point] | –
18 | CCN(CC)C(=O)CSc1nnc2nnc3cc(OC)ccc3n12 | inconclusive: 7.08 µM [quencher, side channel, partial curve] | –
19 | COc1ccc(-c2cc(-c3nnc(COC(=O)c4ccncc4)o3)c3ccccc3n2)cc1OC | inconclusive: 15.8 µM [quencher, partial curve] | –
20 | Cc1ccc(NC(=O)CC2CS(=O)(=O)CC2CC(=O)Nc2ccc(C)c(C)c2)cc1C (centres undefined) | – | inactive: -3.69%

Row | Compound | Potency | activity change, negative = inhibition
21 | COc1ccc(/C=C/C(=O)O/N=C(\N)c2cccnc2)cc1OC | inconclusive: 14.1 µM [quencher, side channel, partial curve] | –
22 | Cc1ccc(-n2c(-c3ccccc3)n[nH]c2=S)c(C)c1 | – | inactive: -1.36%
23 | Cc1cccc(NC(=S)NC(=O)Cc2ccccc2)c1C | – | inactive: -6.62%
24 | O=C(Cc1ccccc1Cl)NC1(O)C(=O)c2ccccc2C1=O | inconclusive: 5.01 µM [quencher, side channel, full curve, poor fit] | –
25 | O=C(O)c1cccc(Nc2nc(-c3ccc([N+](=O)[O-])cc3)nc3ccccc23)c1 | – | inactive: 10.5%
26 | COc1ccc(C2CC(C(F)(F)F)n3ncc(C(=O)Nc4c(C)n(C)n(-c5ccccc5)c4=O)c3N2)cc1 (centres undefined) | inconclusive: 3.55 µM [quencher, side channel, single point] | –
27 | COCC(C)n1c(SCc2cc(=O)n3cc(C)ccc3n2)nc2ccccc2c1=O (centres undefined) | inconclusive: 39.8 µM [quencher, side channel, single point] | –
28 | Cc1cc(C[n+]2ccsc2N)c2ncccc2c1 | – | inactive: 5.1%
29 | O=c1oc2cc(O)ccc2cc1S(=O)(=O)c1ccccc1 | inconclusive: 35.5 µM [quencher, single point] | –
30 | N=c1c(C(=O)NCc2ccc3c(c2)OCO3)cc2c(=O)n3ccccc3nc2n1Cc1cccnc1 | inconclusive: 12.6 µM [quencher, side channel, partial curve] | –
31 | N/C(=N\OC(=O)c1ccc(Cl)cc1[N+](=O)[O-])c1cccnc1 | inconclusive: 3.16 µM [quencher, side channel, partial curve] | –
32 | O=C(COC(=O)CSc1ccc([N+](=O)[O-])cc1)NCC1CCCO1 (centres undefined) | inconclusive: 22.4 µM [quencher, side channel, partial curve] | –
33 | CCOc1ccc(C2C(C#N)=C(N)SC(N)=C2C#N)cc1OCC | inconclusive: 15.8 µM [quencher, partial curve] | –
34 | CC(C)C(=O)N1CCC(n2nccc2NC(=O)CCc2ccccc2)CC1 | – | inactive: -0.321%
35 | COc1ccc(Oc2ccc(/C=N/NC(=O)c3cccnc3)cc2[N+](=O)[O-])cc1 | inconclusive: 12.6 µM [quencher, side channel, partial curve] | –
36 | COc1ccccc1C(=O)N/N=C/c1ccc2c(c1)OCO2 | inconclusive: 20 µM [quencher, side channel, partial curve] | –
37 | Cc1ccc(N(Cc2ccccc2)C(=O)c2cccc(F)c2)cc1 | inconclusive: 31.6 µM [quencher, side channel, partial curve] | –
38 | COC(=O)c1cc2ccsc2n1CC(=O)N1CCCc2ccccc21 | – | inactive: -5.56%
39 | CN(C)CCCN1C(=O)c2cccc3c([N+](=O)[O-])ccc(c23)C1=O | inconclusive: 3.55 µM [quencher, side channel, partial curve] | –
40 | CC(C)S(=O)(=O)c1nsc2nc(=O)c(/C=C3\C=Nc4ccccc43)c(N)n12 | inconclusive: 31.6 µM [quencher, side channel, single point] | –

Row | Compound | Potency | activity change, negative = inhibition
41 | O=C(NNC(=O)c1ccncc1)Nc1cccc([N+](=O)[O-])c1 | inconclusive: 14.1 µM [quencher, side channel, partial curve] | –
42 | Cc1ccc(Nc2nc(N3CCN(C)CC3)nc(N)c2[N+](=O)[O-])cc1C | inconclusive: 0.562 µM [fluorescent, side channel, partial curve] | –
43 | O=C(c1cc(COc2ccc(F)cc2Cl)on1)N(CCO)Cc1cccs1 | – | inactive: 0.846%
44 | O=C(Cn1cnc2scc(-c3cccc([N+](=O)[O-])c3)c2c1=O)NCc1ccco1 | inconclusive: 12.6 µM [quencher, side channel, partial curve] | –
45 | CCc1nc(N2CCN(Cc3ccc4c(c3)OCO4)CC2)c2oc3ccccc3c2n1 | – | inactive: 8.81%
46 | O=C(Nc1ccc(C(=O)O)cc1)/C(=C/c1ccc([N+](=O)[O-])cc1)NC(=O)c1ccccc1 | inconclusive: 39.8 µM [quencher, single point] | –
47 | CCC(=O)Nc1ccccc1Nc1cc(C#N)c(C#N)cc1[N+](=O)[O-] | inconclusive: 14.1 µM [quencher, side channel, partial curve] | –
48 | COc1ccc(C(=O)c2c(C(F)(F)F)oc3c2C(=O)c2ccccc2C3=O)cc1 | inconclusive: 3.98 µM [quencher, side channel, full curve] | –
49 | COc1cc(/C=C2\SC(=S)N(CC(=O)Nc3cccnc3)C2=O)cc(OC)c1OC | inconclusive: 20 µM [quencher, side channel, partial curve] | –
50 | COc1ccc(/C=N/NC2=NCCCCC2)c(OC)c1 | – | inactive: -5.34%
51 | CCn1c(SCC(=O)NNC(=O)c2ccc(OC)cc2)nnc1-c1ccco1 | inconclusive: 10 µM [quencher, side channel, partial curve] | –
52 | COc1ccc(NC(=O)c2cc([N+](=O)[O-])ccc2N2CCN(C)CC2)cc1 | inconclusive: 20 µM [quencher, side channel, partial curve] | –
53 | O=C(COc1ccccc1[N+](=O)[O-])N/N=C/c1ccc(O)cc1 | inconclusive: 12.6 µM [quencher, side channel, partial curve] | –
54 | CCN(CC)S(=O)(=O)c1cccc(NC(=O)Nc2cccc(C(F)(F)F)c2)c1 | – | inactive: -22.4%
55 | O=C(CCCCCN1C(=O)c2cccc3cccc(c23)C1=O)NC1CCS(=O)(=O)C1 (centres undefined) | inconclusive: 10 µM [quencher, side channel, partial curve] | –
56 | COc1ccccc1N1CCc2c(C)nc3c(OC)cccc3c21 | inconclusive: 8.91 µM [quencher, side channel, partial curve] | –
57 | Cc1ccc(NCC(=O)c2ccccc2)cc1Cl | inconclusive: 39.8 µM [quencher, side channel, single point] | –
58 | CCN(CC)CCCNC1=C(Cl)C(=O)c2ccccc2C1=O | inconclusive: 7.08 µM [quencher, side channel, partial curve] | –
59 | COC(=O)c1c(C)n(-c2ccc(OC)cc2)c2ccc(O)cc12 | – | inactive: -6.69%
